{"source": "paper PMC11995724", "about": "“Antibiotic target discovery by integrated phenotypic and activity-based profiling of electrophilic fragments” (Cell chemical biology, 2025)", "note": "About 110 (3.4%) of roughly 3,200 compounds showed an effect of 50% or more. The list shows a part of the results."}
{"tested_on": "T1, V. cholerae SAD30", "T1 construct": "SAD30", "parameters": "species or system S. aureus MSSA476 (TSB) or V. cholerae SAD30 (LB); 384-well bacterial growth screen at 25 uM, OD600 relative to DMSO control", "details": "relative growth, OD600, LB; 25 µM; inhibitor", "units": {"% of control remaining": "%"}}
{"smiles": "CCCn1c(C)cc(C=C(C#N)C(=O)Nc2cccc(C#N)c2)c1C", "note": "[8-N19, 2-cyano-N-(3-cyanophenyl)-3-(2,5-dimethyl-1-propyl-1H-pyrrol-3-yl)prop-2-enamide]", "% of control remaining": 77.8382}
{"smiles": "Cc1cccc(N(Cc2c(C3CC3)cnn2C)C(=O)CCl)c1", "note": "[5-D07, 2-chloro-N-[(4-cyclopropyl-1-methyl-1H-pyrazol-5-yl)methyl]-N-(3-methylphenyl)acetamide]", "% of control remaining": 101.545}
{"smiles": "CCc1ccc(C=C(C#N)C(=O)Nc2cc(C)c(Cl)cc2OC)cc1", "note": "[8-G11, N-(4-chloro-2-methoxy-5-methylphenyl)-2-cyano-3-(4-ethylphenyl)prop-2-enamide]", "% of control remaining": 68.4568}
{"smiles": "CN(C)C(=O)c1cc2n(n1)CC1(CCN(C(=O)CCl)CC1)OC2", "note": "[5-K11, 1-(2-chloroacetyl)-N,N-dimethyl-4',7'-dihydrospiro[piperidine-4,6'-pyrazolo[3,2-c][1,4]oxazine]-2'-carboxamide]", "% of control remaining": 97.5097}
{"smiles": "C=CC(=O)Nc1ccc(C(=O)NC2CCN(C(C)C)C2=O)cc1", "note": "(stereo not shown) [3-C10, N-[2-oxo-1-(propan-2-yl)pyrrolidin-3-yl]-4-(prop-2-enamido)benzamide]", "% of control remaining": 104.264}
{"smiles": "CC(Cl)C(=O)N1CC(=O)Nc2cc(C(F)(F)F)ccc21", "note": "(stereo not shown) [4-N20, 4-(2-chloropropanoyl)-7-(trifluoromethyl)-1,2,3,4-tetrahydroquinoxalin-2-one]", "% of control remaining": 104.378}
{"smiles": "C=CC(=O)N(C)Cc1cc2ccccc2o1", "note": "[3-I09, N-[(1-benzofuran-2-yl)methyl]-N-methylprop-2-enamide]", "% of control remaining": 87.6787}
{"smiles": "C=CS(=O)(=O)Nc1ccccc1", "note": "[10-C07, N-phenylethene-1-sulfonamide]", "% of control remaining": 102.24}
{"smiles": "CC(Cl)C(=O)N1CCOC(c2ccc(Cl)s2)C1", "note": "(stereo not shown) [6-N07, 2-chloro-1-[2-(5-chlorothiophen-2-yl)morpholin-4-yl]propan-1-one]", "% of control remaining": 93.1273}
{"smiles": "O=C(CCl)Cc1ccc(Cl)cc1Cl", "note": "[10-A15, 1-chloro-3-(2,4-dichlorophenyl)propan-2-one]", "% of control remaining": 22.1313}
{"smiles": "C=CC(=O)NC1CCSC(C)C1", "note": "(stereo not shown) [1-J06, N-(2-methylthian-4-yl)prop-2-enamide]", "% of control remaining": 108.685}
{"smiles": "C=CC(=O)N1CCC(C(=O)NCc2ccc(C(N)=O)nc2)CC1", "note": "[3-N05, 5-({[1-(prop-2-enoyl)piperidin-4-yl]formamido}methyl)pyridine-2-carboxamide]", "% of control remaining": 97.7357}
{"smiles": "Cc1cccc2[nH]cc(C(=O)CCl)c12", "note": "[10-H09, 2-chloro-1-(4-methyl-1H-indol-3-yl)ethan-1-one]", "% of control remaining": 100.526}
{"smiles": "CC(C)(C)N(Cc1ccccc1)C(=O)CCl", "note": "[5-H20, N-benzyl-N-tert-butyl-2-chloroacetamide]", "% of control remaining": 97.1735}
{"smiles": "C=CC(=O)N1CCOC(c2ccccc2Cl)C1", "note": "(stereo not shown) [1-P20, 1-[2-(2-chlorophenyl)morpholin-4-yl]prop-2-en-1-one]", "% of control remaining": 138.616}
{"smiles": "C=CC(=O)NCc1ccccc1-n1ccc(C)n1", "note": "[1-J19, N-{[2-(3-methyl-1H-pyrazol-1-yl)phenyl]methyl}prop-2-enamide]", "% of control remaining": 86.0987}
{"smiles": "CN(C)S(=O)(=O)c1ccc(Cl)c(NC(=O)CCl)c1", "note": "[6-H12, 2-chloro-N-[2-chloro-5-(dimethylsulfamoyl)phenyl]acetamide]", "% of control remaining": 86.757}
{"smiles": "C=CC(=O)NC(c1nnc2n1CCC2)C(C)C", "note": "(stereo not shown) [3-P07, N-(2-methyl-1-{5H,6H,7H-pyrrolo[2,1-c][1,2,4]triazol-3-yl}propyl)prop-2-enamide]", "% of control remaining": 104.44}
{"smiles": "Cl.O=C(CCl)NCC(c1nccs1)N1CCCC1", "note": "(stereo not shown) [6-D11, 2-chloro-N-[2-(pyrrolidin-1-yl)-2-(1,3-thiazol-2-yl)ethyl]acetamide hydrochloride]", "% of control remaining": 92.0656}
{"smiles": "N#CC(=Cc1cccc2ccccc12)C(=O)NCc1ccc(Cl)cc1", "note": "[8-J09, N-[(4-chlorophenyl)methyl]-2-cyano-3-(naphthalen-1-yl)prop-2-enamide]", "% of control remaining": 74.7111}
{"smiles": "C=CC(=O)N1CCC(C(O)c2ccnn2C)CC1", "note": "(stereo not shown) [3-K03, 1-{4-[hydroxy(1-methyl-1H-pyrazol-5-yl)methyl]piperidin-1-yl}prop-2-en-1-one]", "% of control remaining": 106.91}
{"smiles": "Cc1ccccc1C(C)NC(=O)C(C#N)=Cc1ccco1", "note": "(stereo not shown) [9-E06, 2-cyano-3-(furan-2-yl)-N-[1-(2-methylphenyl)ethyl]prop-2-enamide]", "% of control remaining": 75.9347}
{"smiles": "N#CC(=CNc1ccc(F)cc1)C(=O)NCc1ccccc1", "note": "[8-E20, N-benzyl-2-cyano-3-[(4-fluorophenyl)amino]prop-2-enamide]", "% of control remaining": 82.4609}
{"smiles": "CC(C)(C)OC(=O)[C@H]1C[C@@H]1C(=O)CCl", "note": "(racemic) [10-C13, rac-tert-butyl (1R,2R)-2-(2-chloroacetyl)cyclopropane-1-carboxylate]", "% of control remaining": 106.293}
{"smiles": "Cc1ccc([N+](=O)[O-])cc1N1C(=O)C=CC1=O", "note": "[10-O14, 1-(2-methyl-5-nitrophenyl)-2,5-dihydro-1H-pyrrole-2,5-dione]", "% of control remaining": 26.6511}
{"smiles": "COc1ccc2nnc(CNC(=O)C(C)Cl)n2n1", "note": "(stereo not shown) [7-J15, 2-chloro-N-({6-methoxy-[1,2,4]triazolo[4,3-b]pyridazin-3-yl}methyl)propanamide]", "% of control remaining": 82.6037}
{"smiles": "COc1cc2c(cc1NC(=O)C(C)Cl)oc1ccccc12", "note": "(stereo not shown) [6-G09, 2-chloro-N-{4-methoxy-8-oxatricyclo[7.4.0.0,2,7]trideca-1(9),2(7),3,5,10,12-hexaen-5-yl}propanamide]", "% of control remaining": 55.9674}
{"smiles": "C=CC(=O)NCc1c(F)cccc1S(=O)(=O)N(C)C", "note": "[3-L15, N-{[2-(dimethylsulfamoyl)-6-fluorophenyl]methyl}prop-2-enamide]", "% of control remaining": 91.9133}
